Two molecules from publication PMC12381110 (Nature Communications, 2025) can be followed below.

In general, stoichiometry N refers to a count of units in the complex or per binding partner.

Data set [1] addresses MalF, transmembrane subunit of the maltose transporter MalFGK2 ( (bacterial; expressed in E. …, UniProt P02916). The data set can be described thus: native gel or EMSA. For orientation: Mobility shift assays separate free from complexed probe on a gel.
Data set [2] deals with the molecule itself. The data set can be described thus: cryo-EM structure.
Data set [3] deals with the molecule itself. Put plainly: native gel or EMSA.

B1: MalK, ATPase subunit of the maltose transporter MalFGK2 (natural protein)
chain: not shown
For B1, the binding result in data set [1] and in data set [2] was “binds” throughout.

B2: SecA (natural protein)
chain: not shown
As for B2, in data set [3], the “stoichiometry N” value stood at 2.
